# From PubChem BioAssay AID1508642 (National Center for Advancing Translational Sciences (NCATS), 2021)
# Hit rate of the full screen: of about 43,000 compounds, about 200 (0.47%) were called active. Roughly 12% stayed inconclusive and do not appear here. The call rests on the fitted dose curve; in most records, active means well fitted cell-killing curve with a large enough effect; inconclusive means small, poorly fitted or top-dose-only effect, or effect the other way; inactive means flat fitted curve, though single readings scatter. The list shows a part of the results.
# Experiment: Cell viability qHTS assay in S16 Pmp22-F2sN cells; further: nearly all actives have a fitted effect of over 65% in size
# Conditions: S16 Pmp22-F2sN Schwann cells (luciferase reporters placed in the Pmp22 gene) viability, CellTiter-Glo, 24 h; series mostly up to 57.5 µM; activity change, negative = cytotoxicity: at the top concentration
# Outline: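 Seed 500-1,000 S16 Pmp22-F2sN cells per well in phenol-red-free DMEM with 10% heat-inactivated FBS; pin-add 23 nL compound; incubate 24 h at 37C; add CellTiter-Glo, wait 15 min protected from light; read luminescence.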
# On the % scale 0 is the no-effect control and ±100 the full control effect.
row,SMILES,"activity change, negative = cytotoxicity"
1,O=C(CC1Oc2ccccc2NC1=O)NCc1ccc(F)cc1 (configuration not stated),inactive: 13.7%
2,COc1ccc(CC(=O)Nc2nnc3n2CCS3)cc1,inactive: 1.46%
3,O=c1oc2ccc(F)cc2cc1-c1nc(-c2cccs2)no1,inactive: 6.11%
4,Cc1ccc(CSc2nc3ccsc3c(=O)n2CCC(C)C)cc1,inactive: -5.05%
5,Cc1ccc(C)c(N2CCN(C(=O)Cn3c(C)c4cnn(-c5ccccc5)c(=O)c4c3C)CC2)c1,inactive: -26.5%
6,CCOC(=O)c1cc(OC(=O)c2cccc(Cl)c2)n(-c2ccccc2)n1,inactive: 6.59%
7,COc1cc(NC(=O)Cn2c(=O)nc(-c3ccccc3F)c3cc(Cl)ccc32)cc(OC)c1,inactive: -20%
8,CCN(C(=O)Cn1cc(C(=O)c2ccc(F)cc2)c(=O)c2ccc(C)nc21)c1cccc(C)c1,inactive: -3.41%
9,COC(=O)c1ccccc1NC(=O)Cn1nc(C(F)(F)F)c2c1CCCC2,inactive: -28.1%
10,Cc1cc(C)c2c(CC(=O)Nc3c(C(=O)c4ccc(F)cc4)oc4ccccc34)coc2c1,inactive: 1.67%
11,Cc1ccc2c(c1)CC(C)N2S(=O)(=O)c1nnc(NC(=O)CC(C)C)s1 (configuration not stated),inactive: -1.15%
12,COc1ccc(OC)c(NC(=O)CCc2c(C)nc3c(c(C)nn3C(C)(C)C)c2C)c1,inactive: 14.3%
13,CC(C)c1nc2ccc(C(=O)NCCCN3CCN(c4ccc(F)cc4)CC3)cc2o1,inactive: 7.57%
14,COc1cccc(-n2c(-c3ccc(C)cc3)cc3c2CC(C)(C)CC3=O)c1,inactive: -9.48%
15,COCCNC(=O)CCSc1nc(-c2ccc3c(c2)OCO3)cc(C(F)(F)F)n1,inactive: -1.07%
16,CCc1nnc2c(NCc3cccc(OC)c3)nc3ccccc3n12,inactive: 5.32%
17,COc1ccccc1N1CCN(c2cc(C)nc3c(-c4ccc(Cl)cc4)c(C)nn23)CC1,inactive: 6.47%
18,CN(C)c1ccc(CNC(=O)CCn2c(=O)c3cccn3c3ccc(F)cc32)cc1,inactive: 7.22%
19,COc1cccc(-c2[nH]c3c(c2-c2c(-n4cccc4)n(C)c(=O)[nH]c2=O)c(=O)[nH]c(=O)n3C)c1,inactive: -0.967%
20,COCCCNc1nc2c(c(=O)n(C)c(=O)n2C)n1Cc1ccccc1,inactive: -21.1%
21,COCCOC(=O)C1=C(C)N=C2SCCC(=O)N2C1c1ccc(OCc2ccccc2)c(OC)c1 (configuration not stated),inactive: 7.47%
22,Cc1cn(C)c(CC(=O)N2CCN(c3ccc(F)cc3)CC2)c1C(=O)O,inactive: 8.14%
23,Cc1ccc(NS(=O)(=O)c2ccc3c(c2)NC(=O)CCS3)cc1F,inactive: -0.334%
24,O=C(NCc1ccc2c(c1)CCN2C(=O)c1ccccc1)c1ccc(Br)o1,inactive: -6.78%

row,SMILES,"activity change, negative = cytotoxicity"
1,CCOc1ccccc1C(=O)Nc1nnc(COC)s1,inactive: -2.09%
2,Cc1ccc(C(=O)N2CCc3cc(CNC(=O)c4ccnn4C)ccc32)cc1,inactive: -25.1%
3,CCN(CC)S(=O)(=O)c1ccc2c(c1)c(=O)c(C(=O)NCc1ccccc1OC)cn2C,inactive: -14.9%
4,COc1cc(C2c3c(-c4c(C)cc(C)cc4O)n[nH]c3C(=O)N2CCCOC(C)C)cc(OC)c1OC (configuration not stated),inactive: -1.57%
5,CCc1ccccc1NC(=O)CN1C(=O)COc2ccc(S(=O)(=O)Nc3ccccc3)cc21,inactive: 0.603%
6,CCC1CN(S(=O)(=O)c2ccc3c(c2)NC(=O)CC(=O)N3)c2cc(Cl)ccc2O1 (configuration not stated),inactive: -22.1%
7,Cn1c(=O)c2c(-c3ccccc3Cl)n(Cc3ccc(Cl)cc3)cc2n(C)c1=O,inactive: 5.32%
8,Cc1cccc(N2CCN(C(=O)CCC(=O)NNc3nc4ccccc4c4nc(C)nn34)CC2C)c1 (configuration not stated),inactive: -11.6%
9,COc1ccc(S(=O)(=O)n2nc(-c3ccco3)nc2NCc2ccc(OC)c(OC)c2)cc1,inactive: 2.64%
10,COc1ccc(N(C(=O)c2ccc(Cl)cc2)S(=O)(=O)c2ccc(C)cc2)cc1,inactive: -17%
11,Cc1ccc(N2CC(c3nnc(Cc4ccccc4Cl)o3)CC2=O)cc1 (configuration not stated),inactive: -0.654%
12,COc1ccccc1Cc1nc2ccccc2nc1SCC(=O)Nc1ccccc1C(F)(F)F,inactive: -7.23%
13,COc1ccc(S(=O)(=O)c2cc3cc(OC)ccc3oc2=O)cc1,inactive: 6.29%
14,CCN1CCN(c2c(S(=O)(=O)c3ccc(Cl)cc3)cnc3ccccc23)CC1,inactive: -20.5%
15,Cc1ccc(NC(=O)Cn2c(=O)n(CCCS(=O)(=O)C3CCCCC3)c(=O)c3ccccc32)cc1F,inactive: 18%
16,COc1ccc(C(=O)c2oc3ccccc3c2NC(=O)COc2ccc(C)cc2)cc1,inactive: -8.75%
17,Cc1ccc(S(=O)(=O)c2nc(-c3ccc(F)cc3)oc2SCC(=O)c2ccccc2)cc1,inactive: -20.1%
18,CCc1ccc2oc(-c3cccc(NC(=O)C(C)(C)Oc4ccc(Br)cc4)c3)nc2c1,inactive: 21.7%
19,Cc1cc(C)cc(Nc2ncnc3onc(-c4ccc(F)cc4)c23)c1,inactive: -3.48%
20,CCOc1ccc(-n2cc(-c3ccccc3)c3c(N4CCC(C)CC4)ncnc32)cc1,inactive: 3.23%
21,CCOc1ccccc1NC(=O)C(=O)c1cc(C)n(-c2ccc(F)cc2)c1C,inactive: 11%
22,COc1ccc(-c2nnc(Nc3ccc(OC)c(C(N)=O)c3)c3ccccc23)cc1,inactive: -6.31%
23,CCS(=O)(=O)c1nc(S(=O)(=O)c2ccc(C)cc2)c(NC(C)c2ccccc2)s1 (configuration not stated),inactive: -16%
